Data as given in PubChem BioAssay AID1963450 (Molecular Pharmacology Branch, DTP, NCI, 2024).
Not every entry of the source has a single result; some have several. The list is limited to them. The source may hold further records. The records of an entry repeat one measurement in other runs, samples, wells, individuals or studies. Additions like (4×) give the number of equal values in this list. A date in brackets names the month of the test.

Tested on: 556581-035-R-J1-PDC complex spheroid growth
Experiment: Anticancer human tumor 556581-035-R-J1-PDC patient-derived ovarian carcinoma cell line growth inhibition [Asc]
Details: stronger effect = lower value
Procedure: Multicellular complex tumor spheroid response to apoptosis pathway targeting inhibitors Alrizomadlin, Pelcitoclax, and Dasminapant in combination with a variety of drugs and investigational agents in selected tumor cell lines
The MDM2 inhibitor alrizomadlin, the Bcl-2/Bcl-xL inhibitor pelcitoclax, and the IAPs inhibitor dasminapant were evaluated both individually and in combination with standard of care and investigational anticancer small molecules within a complex spheroid model of solid tumors. . Complex spheroids include a stromal component modeled by human endothelial cells (HUVEC) and fibroblasts modeled by human mesenchymal stem cells (MSCs). The concentration ranges selected for each drug and investigational agent were based upon clinically achievable concentrations if the clinical Cmax of the agent was known.
Compounds. The drugs and investigational agents: alrizomadlin (APG-115; NSC831270), pelcitoclax (APG-1252; NSC835773), dasminapant (APG-1387;NSC834197), TAK-243 (NSC785004), copanlisib (NSC809693), olaparib (NSC753686), talazoparib (NSC767125), cobimetinib (NSC 768068), eltanexor (KPT-8602, NSC 794443), abemaciclib (NSC 768073), sotorasib (NSC818433), adagrasib (NSC 831453), MRTX-1133 (NSC 836407), Iadademestat (ORY1001, NSC 806812), and RMC-4630 (NSC839698), were obtained from the NCI Developmental Therapeutics Program Chemical Repository. The FDA-approved anticancer drug set is available from the Developmental Therapeutics Program at https://dtp.cancer.gov/organization/dscb/obtaining/available plates.htm. […] The stock solutions were prepared in dimethyl sulfoxide (DMSO, Sigma-Aldrich, St. Louis, MO, cat. D2650) at 800-fold the tested concentration and stored at -70 degrees C prior to their use. All drugs and investigational agents were tested over a range starting from a high concentration at or near the clinical Cmax and decreasing in half-log increments. If the clinical Cmax for an agent had not been determined, the highest concentration tested was 10 microM.
The patient-derived cancer (PDC) cell lines include five colon adenocarcinomas: 186277-243-T-J2-PDC, 616215-338-R-J1-PDC, 439559-082-T-J2-PDC, 463943-066-T-J2-PDC, and 519858-162-T-J1-PDC; three pancreatic carcinomas: 323965-272-R-J2-PDC, 521955-158-R6-J3-PDC, and 521955-158-R2-J5-PDC; two uterine sarcomas: 327498-152-R-J2-PDC and 993429-296-R-J1-PDC; two rhabdomyosarcomas: 755483-174-R-J1-PDC and 772245-204-R-J1-PDC; two soft tissue sarcomas: 126254-015-R-J1-PDC and 494315-158-R-J1-PDC; two malignant fibrous histiocytomas: 317291-083-R-J1-PDC and 596521-263-R-J1-PDC; two breast carcinomas: 171881-019-R-J1-PDC and 885512-296-R-J2-PDC; and one ovarian carcinoma: 6556581-035-R-J-PDC were obtained from the NCI PDMR, (https://pdmr.cancer.gov). The established cell lines HSSY-2 synovial sarcoma (RRID:CVCL 8719), SYO-1 synovial sarcoma (RRID:CVCL_7146), MPNST malignant peripheral neural sheath tumor were obtained from the Sloan Kettering Institute. The following established cell lines were purchased from the American Type Culture Collection (ATCC, Manassas, VA), Sor the received from the NCI repository:, PANC-1 pancreatic carcinoma (CRL-1469, RRID:CVCL_0480), OVCAR-5 ovarian carcinoma (RRID:CVCL_1628), OVCAR-8 ovarian carcinoma (RRID:CVCL_1629), , MCF-7 breast carcinoma (CRL-12584, RRID:CVCL_0031), MDA-MB-231 breast carcinoma (CRL-12532, RRID:CVCL_0062), NCI-H1876 small cell lung carcinoma (CRL-5902, RRID:CVCL_1503), NCI-H510A small cell lung carcinoma (HTB-184, RRID:CVCL_1565), NCI-H1417 (CRL-5869, RRID:CVCL_1469), and NCI-H196 small cell lung carcinoma (CRL-5823, RRID:CVCL_1509). Dr. Peter Houghton (Greehey Children's Cancer Research Institute, University of Texas Health Science Center, San Antonio, TX) provided Rh-18 rhabdomyosarcoma (RRID:CVCL_1659). Pooled donor human umbilical vein endothelial cells (HUVEC, Lonza, cat. CC-2519) and human mesenchymal stem cells (hMSC, Lonza, cat. PT-2501) were purchased from Lonza (Walkersville, MD).
Cell Culture. […]
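Also: spheroids exposed to agents for 7 days before viability read.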

| Structure (SMILES) | viability, T/C (compound alone 0.03 µM) | viability, T/C (compound alone 0.0949 µM) | viability, T/C (compound alone 0.3 µM) | viability, T/C (compound alone 0.949 µM) | viability, T/C (compound alone 3 µM) | viability, T/C (compound alone 0.01 µM) | viability, T/C (compound alone 0.1 µM) | viability, T/C (compound alone 1 µM) |
| --- | --- | --- | --- | --- | --- | --- | --- | --- |
| CCN1C(C(=O)NC23CCC(C(=O)O)(CC2)CC3)C(c2cccc(Cl)c2F)C2(C(=O)Nc3cc(Cl)ccc32)C12CCCCC2 (stereo not drawn) | 103 (2×), 114, 82.9, 107, 92.6, 111 (2×), 79.5, 95, 96.6, 92, 94.1, 100, 101% | 94.9, 84, 109, 86.8, 102, 93.8, 93.2, 66.7, 92.4, 105, 111, 99.5, 70.1, 77.5, 108% | 99, 105, 117, 86.5, 104, 88, 89.8, 81.3, 81.5, 92.8, 103, 84.8, 90.7, 110, 99.3% | 88.8, 117, 86.5, 91.8, 96.3, 95.3, 81.5, 106, 88, 104, 107, 78.3, 84.9, 96.1% | 93.4 (2×), 99.7, 93.5, 80.4, 88.5, 85.1, 84.6, 76, 88.2, 90.5, 75, 90, 80.8, 108% |  |  |  |
| CNC(C)C(=O)NC1CN(S(=O)(=O)c2cccc(S(=O)(=O)N3CCC4CCC(C(=O)NC(c5ccccc5)c5ccccc5)N4C(=O)C(NC(=O)C(C)NC)C3)c2)CCC2CCC(C(=O)NC(c3ccccc3)c3ccccc3)N2C1=O (stereo not drawn) |  |  |  |  |  | 76.6, 95.6, 92.6, 82, 88.8, 72.6, 69, 74, 84.5, 81.7, 96.8, 84.6, 77.3% [2022-10] and 102% [2022-11] | 66.4, 82.4, 64.4, 69.5, 75.1, 70.8, 51.9, 76.5, 83.5, 79.9, 73.9, 81.7, 69.6% [2022-10] and 83.2% [2022-11] | 61.1, 50.7, 85.2, 73.9, 60.1, 69.8, 66.2, 75.8, 68.6, 73.6, 78.5, 75.5, 67% [2022-10] and 75.3% [2022-11] |
